Hit rate of the full screen: of about 48,000 compounds, about 450 (0.94%) were called active. Roughly 19% stayed inconclusive and do not appear here. Calls come from the whole dose curve; as a rule, active = well fitted inhibition curve with a large enough effect; inconclusive = small, poorly fitted or top-dose-only effect; inactive = no such curve, though single readings can be large or run the other way. Some of the results follow.
assay: Primary qHTS for Identification of Small Molecule Inhibitors of Huntingtin Promoter Activity; settings: HEK293 HTT promoter firefly luciferase reporter (activity 0% = vehicle and -100% = no light), 24 h; series mostly up to 57.5 µM; activity change, negative = inhibition: at the top concentration; note: nearly all actives have a fitted effect of over 50% in size
Method in brief: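 HEK293 cells carrying firefly luciferase reporters were seeded at 2,500 per well in Opti-MEM and cultured for 24 h. They were then treated with compounds at up to 57.5 uM final for 24 h at 37 degrees C before Dual-Glo luminescence readout.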

Activity change, negative = inhibition, inactive:
CCN(c1ccc(OC)cc1)S(=O)(=O)c1c(C(=O)N2CCCCCC2)c(C)n(C)c1C -9.91%
COc1ccc(N2CCN(CC(O)COc3ccccc3C(C)(C)C)CC2)cc1 (centres undefined) -23.7%
CN(C(=O)CSc1cn(CC(=O)N2CCCCCC2)c2ccccc12)c1ccccc1 -13.5%
CCOc1ccc(NC(=O)Cn2c(=O)n(CCc3ccccc3)c(=O)c3c4c(sc32)CN(C(C)=O)CC4)cc1 -1.73%
CCc1ccc(NC(=O)CSC2=Nc3ccccc3C3=NC(CCC(=O)NCc4ccccc4OC)C(=O)N23)cc1 (centres undefined) -12.2%
CCOCCCNC(=O)c1cnc2sc(N3CCCCCC3)nn2c1=O 9.64%
Cc1nn(-c2ccccc2)c(OC(=O)c2ccc(Br)cc2)c1S(=O)(=O)c1ccccc1 -15.4%
CCOc1ccc(OCC)c(NC(=O)c2cc(C)nc3c2c(C)nn3-c2cccc(Cl)c2C)c1 -9.35%
Cn1c(=O)c2sccc2n2c(CCCC(=O)Nc3ccc(F)cc3F)nnc12 -8.53%
Cc1cc2nn(-c3ccc(Cl)cc3)nc2cc1NC(=O)C(C)C -78.3%
C[C@@H]1C[C@H]2[C@@H]3CCC4=CC(=O)C=C[C@]4(C)[C@@]3(F)[C@@H](O)C[C@]2(C)[C@@]1(O)C(=O)CO 16.1%
COc1ccc2c(c1)c1c(c(=O)n(-c3ccccc3C)c(=O)n1Cc1ccccc1C)n2C 0.449%
O=C(c1ccc2c(c1)OCO2)c1cn(Cc2ccc(F)cc2)c2ccccc2c1=O -25.2%
Cn1nc(C(=O)N2CCN(c3ccccc3)CC2)c2c1-c1ccccc1SC2 -15.1%
CCCCN(CC)C(=O)Cn1c(=O)n(-c2ccc(OCC)cc2)c(=O)c2c3c(sc21)CCC3 3.6%
CCCOC(=O)c1c(NC(=O)c2nc3ncccn3n2)sc(C(=O)OCC)c1C -10.7% [at 11.5 µM]
CC(=O)c1cccc(-n2c(=O)c3c4c(sc3n(Cc3ccccc3Cl)c2=O)CN(C(C)=O)CC4)c1 0.985%
COc1cc(OC)c(C2C=C(C(=O)O)Nc3ncnn32)cc1OC (centres undefined) -6.31%
COc1ccccc1CNC(=O)c1cn(C)c2ccc(S(=O)(=O)N3CCC(C)CC3)cc2c1=O 0.759%
Cc1cc(C)c(NC(=O)CSc2nc(C)cc(C)c2C#N)c(C)c1 -0.642%
O=C(CN1Cc2ccccc2C1=O)Nc1cc(F)ccc1F -10.2%
COc1ccc(Nc2ccc3cc(S(=O)(=O)N4CCCC4)ccc3n2)cc1Cl 0%
COc1ccccc1OCC(=O)N(Cc1ccc(N(C)C)cc1)CC1CCCO1 (centres undefined) -4.91%
CCOc1ccc(-n2c(SCC(=O)Nc3ccccc3OC)nc3c(oc4ccccc43)c2=O)cc1 -12.5%
CC(=O)c1ccc(NC(=O)C2CCN(S(=O)(=O)c3ccc4c(c3)CCCN4C(=O)C3CCC3)CC2)cc1 -6.56%
Cc1ccc2oc(=O)c3cnn(CC(=O)N(C)c4ccc(F)cc4)c3c2c1 -7.21%
CCCSc1nc(=O)c2c(n1C)NC(=O)CC2c1cccc(F)c1F (centres undefined) -11.4%
CCc1ccccc1NC(=O)CN(Cc1ccccc1)S(=O)(=O)c1ccc2nc(C)sc2c1 -23%
COc1ccc(N2CCN(C(=O)Cc3c(C(=O)O)c(C)cn3C)CC2)cc1 -16.3%
CCOC(=O)c1c(NC(=O)CCCOc2ccc(C(C)(C)C)cc2)sc2c1CCC2 -9.11%
COc1ccc(-n2nc3ccc(NC(=O)COc4ccc(C)c(C)c4)cc3n2)cc1 13.2%
CCc1cc(C(=O)Nc2cnn(Cc3ccc(F)cc3)c2)no1 -8.68% [at 11.5 µM]
CC(C)Oc1ccc(C(=O)N[C@H](CNC(=O)CN(C)C)Cc2ccc(-c3cn4cccc([C@H](C)O)c4n3)cc2)cc1Cl -19.3%
CC(=O)c1cccc(NC(=O)c2cnn(-c3cccc(C)c3)c2-n2cccc2)c1 -14.2%
O=C(O)COC(=O)Cc1ccccc1Nc1c(Cl)cccc1Cl -3.91%
COc1ccccc1CCNC(=O)CCn1c(=O)c2cccn2c2ccc(F)cc21 -7.18%
Cc1cc(C)cc(NC(=O)CSCn2nnc3c(=O)[nH]c(Cc4ccc(F)cc4)nc32)c1 -22.9%
Cc1noc(/C=C/c2ccco2)c1S(=O)(=O)N1CCC(C(=O)Nc2ccc(F)cc2F)CC1 -17.6%
CCCCN(Cc1ccccc1)C(=O)CN(C)S(=O)(=O)c1ccc2c(c1)c(=O)n(C)c(=O)n2C -14.6%
CCOC(=O)c1cccc(NC(=O)Cn2c(=O)nc(-c3ccccc3)c3ccccc32)c1 -10.1%
O=C(Nc1cc(C(F)(F)F)ccc1Cl)c1cc(S(=O)(=O)NCc2ccccc2)ccc1F -33%
Cc1cccc(OCc2ccc(-c3nc(C#N)c(N4CCC(C(N)=O)CC4)o3)o2)c1 -6.5%
CCc1cc2c(cc3c(=O)n(CCCC(=O)NCc4ccccc4Cl)nc(CC)n32)s1 5.69%
COCCCNC(=O)CC(c1cc(OC)c(OC)c(OC)c1)N1Cc2ccccc2C1=O (centres undefined) -3.35%
COc1ccc(NC(=O)C(Cc2ccccc2)NS(=O)(=O)c2ccc(Br)s2)cc1OC (centres undefined) 9.87%
CCc1ccc(CNC(=O)c2nn(-c3ccc(C)c(C)c3)nc2CO)cc1 -3.82%
CCC(C)NC(=O)Cn1ncc2c(C)n(Cc3ccc(F)cc3)c(C)c2c1=O (centres undefined) -4.65%
Cc1ccc2c(=O)cc(C(=O)Nc3sc4c(c3C(=O)NCc3ccco3)CCCC4)oc2c1C -8.02%
COC(=O)c1ccc(Cn2c(=O)cc(C)c3c(C)nn(C)c32)cc1 0%
Cc1cc(=O)[nH]c2nnc(SCC(=O)Nc3cc(C(F)(F)F)ccc3Cl)n12 -15.2%
CC(=O)CSc1nc(-c2ccccc2)[nH]c1S(=O)(=O)c1ccc(C)cc1 -16.9%
CCn1cc(C(=O)N2CCN(c3ccccc3)CC2)c(=O)c2cc(S(=O)(=O)N(C)C3CCCCC3)ccc21 -6.76%
CN(C)c1ccc(C(CNC(=O)COc2ccccc2)N2CCOCC2)cc1 (centres undefined) -0.746%
Cc1cnc(NC(=O)C2=C(O)c3ccccc3S(=O)(=O)N2C)s1
O=C(CN1C(=O)CCSc2ccc(S(=O)(=O)N3CCCC3)cc21)Nc1cccc(Cl)c1 -23.9%
CCN(CC)S(=O)(=O)c1ccc2c(c1)N(CC(=O)NCc1ccccc1)C(=O)CS2 -17.4%
Cn1ncc2c(NCc3cccc(Cl)c3)ncnc21 -27.2%
COc1cc(Cl)c(C)cc1NC(=O)CSc1cc(=O)n(C)c2cc(Cl)ccc12 -6.48%
CCOc1ccc(NC(=O)Nc2c(C)n(C)n(-c3ccccc3)c2=O)cc1 13.8%
Cc1ccc(-c2noc(CCC(=O)Nc3ccc(F)cc3Cl)n2)cc1 0.448%
Cc1c(Cl)cccc1NC(=O)N1CCN(Cc2cc(=O)n3nc(-c4ccccc4F)sc3n2)CC1 -14.5%
Cc1nn(C)c2c1c(-c1ccccc1)cc(=O)n2Cc1ccccc1F -1.4%
COc1ccc(NC(=O)c2cccc(N3CCCS3(=O)=O)c2)cc1 33.2%
NC(=O)CSc1ncc2c(n1)-c1ccccc1N(Cc1ccccc1)S2(=O)=O -7.19%
Cc1cc(C)c2c(=O)cc(C(=O)NCCc3ccc(S(N)(=O)=O)cc3)oc2c1 -7.76%
COc1cccc(CNC(=O)Cn2c(=O)c3cccn3c3ccc(F)cc32)c1OC -1.11%
Cc1cccc(NC(=O)CSc2nnc(-c3cccs3)o2)c1 89.3%
Cc1cccc(NC(=O)C(c2ccccc2)N2Cc3ccccc3C2=O)c1C (centres undefined) -14.4%
Cc1noc2ncnc(Nc3ccc(F)cc3)c12 -18.4%
COC(=O)c1sccc1S(=O)(=O)N(CC(=O)Nc1ccc(C)cc1)c1ccccc1 3.82%
Cc1cc(F)ccc1NC(=O)C1CCCN(c2nnc(-n3c(C)ccc3C)s2)C1 (centres undefined) -29.3%
Cc1cc(C)cc(N2C(=O)CS(=O)(=O)C23C(=O)N(Cc2ccc(F)cc2)c2ccc(C)cc23)c1 (centres undefined) -9.93%
COc1ccc(NC(=O)Cn2c(=O)nc(-c3ccccc3)c3ccccc32)cc1OC 7.93%
O=C(O)CCCc1ccccc1 10.5%
Cn1ncc(C(=O)N2CCN(c3ccccc3)CC2)c1C1CCN(C(=O)OC(C)(C)C)CC1 4.61%
Cc1ccc(CCNC(=O)NCc2noc3ccc(C)cc23)cc1 -16.3%
CCOc1ccc(-c2cc3nc(C4CCN(C(=O)OC(C)(C)C)CC4)c(C(=O)Nc4ccc(C(=O)OC)cc4)cn3n2)cc1 -8.96%
Cc1cc(C)n2nc(CNC(=O)c3cccc(Cl)c3)nc2n1 3.89%
Cc1ccc(NC(=O)COc2ccc3oc4c(c3c2)CCCC4)c(C)c1 -4.49%
COc1ccccc1N1CCN(C(=O)C2CCN(S(=O)(=O)c3cccc4nonc34)CC2)CC1 -2.12%
Nc1ncc(S(=O)(=O)NCc2ccccc2F)cn1 3.72%
CCOC(=O)c1c(C)n(-c2ccccc2)c2ccc(OC(=O)c3ccccc3Cl)cc12 -3.53%
CC(C)COc1ccc(C(=O)NCC2OCCc3ccccc32)cc1 (centres undefined) 0.233%
CCOc1ccc(CCNC(=O)C2CCCN(c3nnc(C)c4c(C)n(-c5ccccc5)nc34)C2)cc1 (centres undefined) -21.8%
NC(=O)c1c(NC(=O)c2noc3c2CCCC3)sc2c1CCCC2 83.9%
COc1ccc2oc(=O)c(C(=O)NCCc3c(C)[nH]c4c(C)cccc34)cc2c1 -2.63%
COC(=O)c1cc(NC(=O)CCS(=O)(=O)c2cc(Br)cc3c2N(C(=O)C2CC2)CC3)cc(C(=O)OC)c1 -7.86%
CCOc1cc2[nH]c(=O)n(CCC(=O)N3CCN(c4cccc(Cl)c4)CC3)c(=O)c2cc1OCC -14.6%
CCOC(=O)Cn1nc(C)c(NC(=O)COc2ccc(OC)cc2)c1C 12.3%
CCn1c2ccccc2c2cc(NC(=O)COc3cc(C)c(Cl)c(C)c3)ccc21 -5.78%
Cc1ccccc1C(=O)Nc1ccc(NC(=O)c2cccs2)cc1 -6.76%
CCOC(=O)c1c(C)oc2nc(C)nc(N3CCN(c4ccc(C)cc4C)CC3)c12 -6.04%
COc1ccc(C(=O)NCC(c2ccco2)S(=O)(=O)c2ccccc2)cc1 (centres undefined) 2.25%
CC1(C)O[C@@H]2C[C@H]3[C@@H]4CCC5=CC(=O)C=C[C@]5(C)[C@@]4(F)[C@@H](O)C[C@]3(C)[C@]2(C(=O)CO)O1 0.143%

Source: PubChem BioAssay AID1508623 (National Center for Advancing Translational Sciences (NCATS), 2021)
